Results: paper PMC4521866 (PLoS ONE, 2015)
pIC50: −log10 of the molar value. Like-named read-outs stand apart in the source and are kept apart here. Bridge positions count the residues as written; N and C are the ends. Square brackets hold non-standard residues; d marks the D form. I, II: the chains in the order shown. ξ: configuration not given here. ξK = NCCCCC(N)C(=O)O; βAla = NCCC(=O)O

Test system: pseudotyped HIV-1 (NL4-3)
[1] = Fig 4D, monomers versus N-/C-terminal dimers, pseudo HIV-1 (NL4-3), TZM-bl cells, tat-activated luciferase
[2] = Fig 2A, monomeric peptides, 100TCID50 pseudovirus pre-incubated with peptide 1 h at 37°C, added to TZM-bl cells, luciferase 72 h post-infection, three independent experiments, replicates of two

CC[C@H](C)[C@H](NC(=O)[C@H](Cc1ccc(O)cc1)NC(=O)[C@H](Cc1c[nH]c2ccccc12)NC(=O)[C@H](CC(C)C)NC(=O)[C@H](Cc1c[nH]c2ccccc12)NC(=O)[C@H](CC(N)=O)NC(=O)[C@@H](NC(=O)[C@@H](NC(=O)[C@H](CC(N)=O)NC(=O)[C@H](Cc1ccccc1)NC(=O)[C@H](Cc1c[nH]c2ccccc12)NC(=O)[C@H](CC(N)=O)NC(=O)[C@H](Cc1c[nH]c2ccccc12)NC(=O)[C@H](CC(C)C)NC(=O)[C@H](CO)NC(=O)[C@H](C)NC(=O)[C@H](Cc1c[nH]c2ccccc12)NC(=O)[C@H](CCCCN)NC(=O)[C@H](CC(=O)O)NC(=O)[C@H](CC(C)C)NC(=O)[C@H](CCC(=O)O)NC(=O)[C@H](CC(C)C)NC(=O)[C@H](CC(C)C)NC(=O)[C@H](CCC(=O)O)NC(=O)[C@H](CCC(N)=O)NC(=O)[C@H](CCC(=O)O)NC(=O)[C@H](CC(N)=O)NC(=O)[C@H](CCCCN)NC(=O)[C@H](CCC(=O)O)NC(C)=O)[C@@H](C)CC)[C@@H](C)O)C(=O)N[C@@H](CCCCN)C(=O)NCCCCC(NC(=O)CCNC(=O)[C@H](CCCCN)NC(=O)[C@@H](NC(=O)[C@H](Cc1ccc(O)cc1)NC(=O)[C@H](Cc1c[nH]c2ccccc12)NC(=O)[C@H](CC(C)C)NC(=O)[C@H](Cc1c[nH]c2ccccc12)NC(=O)[C@H](CC(N)=O)NC(=O)[C@@H](NC(=O)[C@@H](NC(=O)[C@H](CC(N)=O)NC(=O)[C@H](Cc1ccccc1)NC(=O)[C@H](Cc1c[nH]c2ccccc12)NC(=O)[C@H](CC(N)=O)NC(=O)[C@H](Cc1c[nH]c2ccccc12)NC(=O)[C@H](CC(C)C)NC(=O)[C@H](CO)NC(=O)[C@H](C)NC(=O)[C@H](Cc1c[nH]c2ccccc12)NC(=O)[C@H](CCCCN)NC(=O)[C@H](CC(=O)O)NC(=O)[C@H](CC(C)C)NC(=O)[C@H](CCC(=O)O)NC(=O)[C@H](CC(C)C)NC(=O)[C@H](CC(C)C)NC(=O)[C@H](CCC(=O)O)NC(=O)[C@H](CCC(N)=O)NC(=O)[C@H](CCC(=O)O)NC(=O)[C@H](CC(N)=O)NC(=O)[C@H](CCCCN)NC(=O)[C@H](CCC(=O)O)NC(C)=O)[C@@H](C)CC)[C@@H](C)O)[C@@H](C)CC)C(N)=O (stereo partly drawn) [EK30-DC]
IC80 [1]: > 33.3 µM

CC[C@H](C)[C@H](NC(=O)[C@H](Cc1ccc(O)cc1)NC(=O)[C@H](Cc1c[nH]c2ccccc12)NC(=O)[C@H](CC(C)C)NC(=O)[C@H](Cc1c[nH]c2ccccc12)NC(=O)[C@H](CC(N)=O)NC(=O)[C@@H](NC(=O)[C@@H](NC(=O)[C@H](CC(N)=O)NC(=O)[C@H](Cc1ccccc1)NC(=O)[C@H](Cc1c[nH]c2ccccc12)NC(=O)[C@H](CC(N)=O)NC(=O)[C@H](Cc1c[nH]c2ccccc12)NC(=O)[C@H](CC(C)C)NC(=O)[C@H](CO)NC(=O)[C@H](C)NC(=O)[C@H](Cc1c[nH]c2ccccc12)NC(=O)[C@H](CCCCN)NC(=O)[C@H](CC(=O)O)NC(=O)[C@H](CC(C)C)NC(=O)[C@H](CCC(=O)O)NC(=O)[C@H](CC(C)C)NC(=O)[C@H](CC(C)C)NC(=O)[C@H](CCC(=O)O)NC(=O)[C@H](CCC(N)=O)NC(C)=O)[C@@H](C)CC)[C@@H](C)O)C(=O)N[C@@H](CCCCN)C(=O)NCCCCC(NC(=O)CCNC(=O)[C@H](CCCCN)NC(=O)[C@@H](NC(=O)[C@H](Cc1ccc(O)cc1)NC(=O)[C@H](Cc1c[nH]c2ccccc12)NC(=O)[C@H](CC(C)C)NC(=O)[C@H](Cc1c[nH]c2ccccc12)NC(=O)[C@H](CC(N)=O)NC(=O)[C@@H](NC(=O)[C@@H](NC(=O)[C@H](CC(N)=O)NC(=O)[C@H](Cc1ccccc1)NC(=O)[C@H](Cc1c[nH]c2ccccc12)NC(=O)[C@H](CC(N)=O)NC(=O)[C@H](Cc1c[nH]c2ccccc12)NC(=O)[C@H](CC(C)C)NC(=O)[C@H](CO)NC(=O)[C@H](C)NC(=O)[C@H](Cc1c[nH]c2ccccc12)NC(=O)[C@H](CCCCN)NC(=O)[C@H](CC(=O)O)NC(=O)[C@H](CC(C)C)NC(=O)[C@H](CCC(=O)O)NC(=O)[C@H](CC(C)C)NC(=O)[C@H](CC(C)C)NC(=O)[C@H](CCC(=O)O)NC(=O)[C@H](CCC(N)=O)NC(C)=O)[C@@H](C)CC)[C@@H](C)O)[C@@H](C)CC)C(N)=O (stereo partly drawn) [QK26-DC]
IC50 elevated by C-terminal dimerization with respect to the monomer (Fig 4D values): 1.3 fold
IC80 [1]: 8.7 µM

Ac-EESQNQQEKNEQELLELDKWASLWNWFNITNWLWYIK-NH2 [EK37]
pIC50 [1]: 5.55
IC80 [1]: 11.6 µM

I: Ac-EESQNQQEKNEQELLELDKWASLWNWFNITNWLWYIK[βAla][ξK]-NH2 / II: Ac-EESQNQQEKNEQELLELDKWASLWNWFNITNWLWYIK (amide I:39-II:C; N-terminus and C-terminus assumed) [EK37-DC]
IC80 [1]: > 33.3 µM

CC[C@H](C)[C@H](NC(=O)[C@H](Cc1ccc(O)cc1)NC(=O)[C@H](Cc1c[nH]c2ccccc12)NC(=O)[C@H](CC(C)C)NC(=O)[C@H](Cc1c[nH]c2ccccc12)NC(=O)[C@H](CC(N)=O)NC(=O)[C@@H](NC(=O)[C@@H](NC(=O)[C@H](CC(N)=O)NC(=O)[C@H](Cc1ccccc1)NC(=O)[C@H](Cc1c[nH]c2ccccc12)NC(=O)[C@H](CC(N)=O)NC(=O)[C@H](Cc1c[nH]c2ccccc12)NC(=O)[C@H](CC(C)C)NC(=O)[C@H](CO)NC(=O)[C@H](C)NC(=O)[C@H](Cc1c[nH]c2ccccc12)NC(=O)[C@H](CCCCN)NC(=O)[C@H](CC(=O)O)NC(=O)[C@H](CC(C)C)NC(=O)[C@H](CCC(=O)O)NC(=O)[C@H](CC(C)C)NC(=O)[C@H](CC(C)C)NC(=O)[C@H](CCC(=O)O)NC(=O)[C@H](CCC(N)=O)NC(=O)[C@H](CCC(=O)O)NC(=O)[C@H](CC(N)=O)NC(=O)[C@H](CCCCN)NC(=O)[C@H](CCC(=O)O)NC(C)=O)[C@@H](C)CC)[C@@H](C)O)C(=O)N[C@@H](CCCCN)C(N)=O [EK30]
pIC50 [1]: 5.24
IC80 [1]: 16.8 µM

CC[C@H](C)[C@H](NC(=O)[C@H](Cc1ccc(O)cc1)NC(=O)[C@H](Cc1c[nH]c2ccccc12)NC(=O)[C@H](CC(C)C)NC(=O)[C@H](Cc1c[nH]c2ccccc12)NC(=O)[C@H](CC(N)=O)NC(=O)[C@@H](NC(=O)[C@@H](NC(=O)[C@H](CC(N)=O)NC(=O)[C@H](Cc1ccccc1)NC(=O)[C@H](Cc1c[nH]c2ccccc12)NC(=O)[C@H](CC(N)=O)NC(=O)[C@H](Cc1c[nH]c2ccccc12)NC(=O)[C@H](CC(C)C)NC(=O)[C@H](CO)NC(=O)[C@H](C)NC(=O)[C@H](Cc1c[nH]c2ccccc12)NC(=O)[C@H](CCCCN)NC(=O)[C@H](CC(=O)O)NC(=O)[C@H](CC(C)C)NC(=O)[C@H](CCC(=O)O)NC(=O)[C@H](CC(C)C)NC(=O)[C@H](CC(C)C)NC(=O)[C@H](CCC(=O)O)NC(=O)[C@H](CCC(N)=O)NC(C)=O)[C@@H](C)CC)[C@@H](C)O)C(=O)N[C@@H](CCCCN)C(N)=O [QK26]
pIC50 [2]: 5.41
IC80 [2]: 8.8 µM
pIC50 [1]: 5.62
IC80 [1]: 6.3 µM

Ac-QELLELDKWASLWNWFNIT-NH2 [QT19]
pIC50 [2]: < 4.48

Ac-LDKWASLWNWFNITNWLWYIK-NH2 [LK21]
pIC50 [2]: 5.10
IC80 [2]: 12.3 µM
